No constants are given. Whether binding was seen depends on the method and setting. In cells and extracts the contact can be indirect. Some entries that bind do so weakly or less than the wild type. Where a sequence is shown, tags or fusion partners need not be part of it.

Sequences of proteins named here, by UniProt entry; tags and fusion partners are left off. A change or cut given only in a name is not applied to a line headed by its entry. A line that says so, or that is headed by a name, gives the form on record, which may keep a tag or linker.
TSC2 c.2747T>C p.(L916P) variant (P49815-1, form named): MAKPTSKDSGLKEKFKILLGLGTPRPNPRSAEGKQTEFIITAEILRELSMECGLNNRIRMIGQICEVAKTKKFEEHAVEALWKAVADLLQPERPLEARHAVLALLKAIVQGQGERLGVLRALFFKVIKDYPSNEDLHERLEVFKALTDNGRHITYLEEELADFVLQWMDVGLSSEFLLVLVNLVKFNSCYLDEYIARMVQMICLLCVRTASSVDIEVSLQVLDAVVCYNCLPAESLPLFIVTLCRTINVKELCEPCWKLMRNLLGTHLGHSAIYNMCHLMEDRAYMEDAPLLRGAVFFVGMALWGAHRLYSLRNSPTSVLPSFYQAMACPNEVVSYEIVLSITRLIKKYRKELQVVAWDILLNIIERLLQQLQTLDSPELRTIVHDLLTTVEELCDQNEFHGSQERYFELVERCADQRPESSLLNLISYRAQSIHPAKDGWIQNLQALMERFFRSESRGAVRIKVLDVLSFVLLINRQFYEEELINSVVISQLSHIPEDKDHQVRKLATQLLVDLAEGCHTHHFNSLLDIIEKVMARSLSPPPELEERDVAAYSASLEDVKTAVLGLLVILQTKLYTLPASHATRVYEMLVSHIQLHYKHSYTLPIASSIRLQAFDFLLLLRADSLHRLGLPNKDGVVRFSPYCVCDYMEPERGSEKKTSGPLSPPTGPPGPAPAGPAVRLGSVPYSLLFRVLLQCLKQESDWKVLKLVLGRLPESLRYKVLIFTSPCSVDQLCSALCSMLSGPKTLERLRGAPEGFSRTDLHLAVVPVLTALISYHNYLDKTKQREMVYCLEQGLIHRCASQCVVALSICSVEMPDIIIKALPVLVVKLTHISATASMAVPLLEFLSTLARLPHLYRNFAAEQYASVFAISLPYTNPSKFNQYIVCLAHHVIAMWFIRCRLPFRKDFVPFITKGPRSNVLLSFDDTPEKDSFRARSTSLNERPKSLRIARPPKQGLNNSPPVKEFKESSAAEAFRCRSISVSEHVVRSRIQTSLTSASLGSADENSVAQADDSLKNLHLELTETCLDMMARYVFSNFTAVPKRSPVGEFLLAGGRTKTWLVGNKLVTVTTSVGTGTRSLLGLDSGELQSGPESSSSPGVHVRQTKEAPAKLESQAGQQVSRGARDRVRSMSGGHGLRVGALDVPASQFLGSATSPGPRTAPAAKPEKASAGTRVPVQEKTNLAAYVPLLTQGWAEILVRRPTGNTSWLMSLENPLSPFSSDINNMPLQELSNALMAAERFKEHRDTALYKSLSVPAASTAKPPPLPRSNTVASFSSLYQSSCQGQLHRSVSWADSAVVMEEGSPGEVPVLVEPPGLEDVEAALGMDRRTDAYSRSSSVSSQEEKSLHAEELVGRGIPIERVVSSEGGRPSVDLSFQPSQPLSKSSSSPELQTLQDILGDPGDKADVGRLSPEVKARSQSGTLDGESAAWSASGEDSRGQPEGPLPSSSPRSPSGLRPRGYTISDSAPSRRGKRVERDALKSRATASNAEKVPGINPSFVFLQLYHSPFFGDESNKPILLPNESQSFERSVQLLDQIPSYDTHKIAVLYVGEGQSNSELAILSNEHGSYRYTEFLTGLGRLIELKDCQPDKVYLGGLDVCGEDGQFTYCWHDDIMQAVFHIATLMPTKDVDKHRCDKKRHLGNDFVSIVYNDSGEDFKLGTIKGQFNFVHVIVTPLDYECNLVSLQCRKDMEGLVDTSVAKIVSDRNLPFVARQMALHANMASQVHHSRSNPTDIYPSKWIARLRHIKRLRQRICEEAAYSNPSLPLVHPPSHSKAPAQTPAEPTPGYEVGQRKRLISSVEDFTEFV
TSC2 c.1477C>G p.(L493V) variant (P49815-1, form named): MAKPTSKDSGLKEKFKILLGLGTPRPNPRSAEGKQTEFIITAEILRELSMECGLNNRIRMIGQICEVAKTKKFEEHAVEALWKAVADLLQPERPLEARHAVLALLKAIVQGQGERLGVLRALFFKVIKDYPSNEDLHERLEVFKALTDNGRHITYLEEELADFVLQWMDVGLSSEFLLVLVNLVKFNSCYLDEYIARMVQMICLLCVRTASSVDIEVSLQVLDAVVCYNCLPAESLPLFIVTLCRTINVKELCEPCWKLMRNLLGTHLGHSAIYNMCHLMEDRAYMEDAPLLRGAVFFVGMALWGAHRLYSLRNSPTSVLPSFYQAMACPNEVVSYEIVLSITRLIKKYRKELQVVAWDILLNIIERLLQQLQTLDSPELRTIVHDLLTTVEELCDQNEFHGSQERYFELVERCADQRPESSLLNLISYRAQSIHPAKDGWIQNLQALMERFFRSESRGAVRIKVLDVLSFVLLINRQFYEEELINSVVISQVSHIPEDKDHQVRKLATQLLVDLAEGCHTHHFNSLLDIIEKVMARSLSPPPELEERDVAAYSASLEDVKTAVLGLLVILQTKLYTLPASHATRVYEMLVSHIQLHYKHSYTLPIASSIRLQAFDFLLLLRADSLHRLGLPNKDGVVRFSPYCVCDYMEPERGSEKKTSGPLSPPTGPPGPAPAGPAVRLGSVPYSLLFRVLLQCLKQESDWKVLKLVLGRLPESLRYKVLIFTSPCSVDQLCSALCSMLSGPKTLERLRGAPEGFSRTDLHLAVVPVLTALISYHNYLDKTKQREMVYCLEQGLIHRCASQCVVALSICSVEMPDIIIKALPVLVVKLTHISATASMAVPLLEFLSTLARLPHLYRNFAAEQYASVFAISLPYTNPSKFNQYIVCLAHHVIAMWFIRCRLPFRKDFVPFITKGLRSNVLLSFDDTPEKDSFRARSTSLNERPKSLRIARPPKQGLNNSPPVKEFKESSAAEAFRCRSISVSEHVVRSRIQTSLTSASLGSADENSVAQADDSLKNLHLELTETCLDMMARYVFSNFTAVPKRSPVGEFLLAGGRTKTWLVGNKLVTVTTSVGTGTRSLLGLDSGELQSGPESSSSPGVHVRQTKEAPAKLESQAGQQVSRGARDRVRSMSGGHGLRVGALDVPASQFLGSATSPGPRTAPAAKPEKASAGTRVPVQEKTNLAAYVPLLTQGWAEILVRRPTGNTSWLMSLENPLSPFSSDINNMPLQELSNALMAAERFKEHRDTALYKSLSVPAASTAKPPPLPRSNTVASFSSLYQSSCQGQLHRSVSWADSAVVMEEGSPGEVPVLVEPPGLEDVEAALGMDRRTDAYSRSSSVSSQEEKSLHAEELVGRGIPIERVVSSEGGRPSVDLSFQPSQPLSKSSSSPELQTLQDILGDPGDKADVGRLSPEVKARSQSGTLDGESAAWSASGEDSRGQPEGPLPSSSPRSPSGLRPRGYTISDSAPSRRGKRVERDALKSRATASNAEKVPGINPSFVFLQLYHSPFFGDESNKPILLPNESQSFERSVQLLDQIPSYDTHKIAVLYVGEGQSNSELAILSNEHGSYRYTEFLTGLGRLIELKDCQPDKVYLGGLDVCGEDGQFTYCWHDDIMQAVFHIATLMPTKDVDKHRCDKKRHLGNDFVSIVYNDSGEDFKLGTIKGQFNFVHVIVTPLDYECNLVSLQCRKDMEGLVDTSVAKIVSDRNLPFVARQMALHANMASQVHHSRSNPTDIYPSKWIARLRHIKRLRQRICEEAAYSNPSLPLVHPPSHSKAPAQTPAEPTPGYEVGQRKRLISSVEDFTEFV
TSC2 c.250G>A p.(A84T) variant (P49815-1, form named): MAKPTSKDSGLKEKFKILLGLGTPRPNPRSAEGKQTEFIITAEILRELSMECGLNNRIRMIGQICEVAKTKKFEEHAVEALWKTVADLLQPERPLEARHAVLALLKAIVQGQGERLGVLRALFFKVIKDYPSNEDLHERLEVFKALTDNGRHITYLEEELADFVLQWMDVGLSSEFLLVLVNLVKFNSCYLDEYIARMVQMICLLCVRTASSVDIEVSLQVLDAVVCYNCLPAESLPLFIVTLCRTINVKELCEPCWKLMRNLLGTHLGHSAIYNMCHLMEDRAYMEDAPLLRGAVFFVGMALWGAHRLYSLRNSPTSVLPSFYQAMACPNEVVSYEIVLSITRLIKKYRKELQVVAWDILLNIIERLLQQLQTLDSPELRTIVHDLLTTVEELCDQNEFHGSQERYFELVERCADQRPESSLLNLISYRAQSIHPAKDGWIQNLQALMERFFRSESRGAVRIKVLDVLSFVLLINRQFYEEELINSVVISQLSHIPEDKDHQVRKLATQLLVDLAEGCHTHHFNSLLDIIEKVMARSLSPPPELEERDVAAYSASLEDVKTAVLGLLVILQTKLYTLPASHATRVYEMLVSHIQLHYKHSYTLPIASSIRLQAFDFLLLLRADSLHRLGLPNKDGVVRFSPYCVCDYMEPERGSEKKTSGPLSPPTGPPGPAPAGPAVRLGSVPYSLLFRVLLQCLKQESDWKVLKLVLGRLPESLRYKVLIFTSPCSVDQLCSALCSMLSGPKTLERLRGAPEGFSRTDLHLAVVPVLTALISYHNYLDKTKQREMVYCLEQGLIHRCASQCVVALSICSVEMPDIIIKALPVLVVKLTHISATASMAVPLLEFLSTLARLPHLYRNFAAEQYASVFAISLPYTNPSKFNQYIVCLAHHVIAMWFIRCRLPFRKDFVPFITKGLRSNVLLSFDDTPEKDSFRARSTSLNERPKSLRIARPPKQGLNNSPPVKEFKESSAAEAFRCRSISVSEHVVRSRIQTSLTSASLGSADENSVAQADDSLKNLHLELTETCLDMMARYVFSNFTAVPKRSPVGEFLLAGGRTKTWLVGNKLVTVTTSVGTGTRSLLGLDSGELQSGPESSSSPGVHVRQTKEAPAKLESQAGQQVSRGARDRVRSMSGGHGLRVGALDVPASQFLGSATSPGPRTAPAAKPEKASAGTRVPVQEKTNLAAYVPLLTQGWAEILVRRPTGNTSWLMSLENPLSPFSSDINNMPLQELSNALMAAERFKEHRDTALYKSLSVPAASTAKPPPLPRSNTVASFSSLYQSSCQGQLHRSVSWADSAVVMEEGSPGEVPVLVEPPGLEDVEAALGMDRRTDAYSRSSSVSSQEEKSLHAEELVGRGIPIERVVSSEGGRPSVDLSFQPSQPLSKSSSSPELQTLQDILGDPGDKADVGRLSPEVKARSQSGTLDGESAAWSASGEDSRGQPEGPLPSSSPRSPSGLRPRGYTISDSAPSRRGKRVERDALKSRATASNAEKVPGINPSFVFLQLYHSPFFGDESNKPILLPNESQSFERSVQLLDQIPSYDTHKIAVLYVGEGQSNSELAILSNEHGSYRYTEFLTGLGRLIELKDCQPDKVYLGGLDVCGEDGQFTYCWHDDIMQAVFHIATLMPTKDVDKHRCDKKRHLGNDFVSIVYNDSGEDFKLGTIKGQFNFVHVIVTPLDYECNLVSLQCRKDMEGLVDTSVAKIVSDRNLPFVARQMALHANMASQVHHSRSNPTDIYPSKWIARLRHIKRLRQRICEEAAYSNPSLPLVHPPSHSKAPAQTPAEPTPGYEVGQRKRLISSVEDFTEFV

In the assay the target is T1, TSC1, wild-type, C-terminal myc-epitope tag (human) (UniProt Q92574).
T1 sequence: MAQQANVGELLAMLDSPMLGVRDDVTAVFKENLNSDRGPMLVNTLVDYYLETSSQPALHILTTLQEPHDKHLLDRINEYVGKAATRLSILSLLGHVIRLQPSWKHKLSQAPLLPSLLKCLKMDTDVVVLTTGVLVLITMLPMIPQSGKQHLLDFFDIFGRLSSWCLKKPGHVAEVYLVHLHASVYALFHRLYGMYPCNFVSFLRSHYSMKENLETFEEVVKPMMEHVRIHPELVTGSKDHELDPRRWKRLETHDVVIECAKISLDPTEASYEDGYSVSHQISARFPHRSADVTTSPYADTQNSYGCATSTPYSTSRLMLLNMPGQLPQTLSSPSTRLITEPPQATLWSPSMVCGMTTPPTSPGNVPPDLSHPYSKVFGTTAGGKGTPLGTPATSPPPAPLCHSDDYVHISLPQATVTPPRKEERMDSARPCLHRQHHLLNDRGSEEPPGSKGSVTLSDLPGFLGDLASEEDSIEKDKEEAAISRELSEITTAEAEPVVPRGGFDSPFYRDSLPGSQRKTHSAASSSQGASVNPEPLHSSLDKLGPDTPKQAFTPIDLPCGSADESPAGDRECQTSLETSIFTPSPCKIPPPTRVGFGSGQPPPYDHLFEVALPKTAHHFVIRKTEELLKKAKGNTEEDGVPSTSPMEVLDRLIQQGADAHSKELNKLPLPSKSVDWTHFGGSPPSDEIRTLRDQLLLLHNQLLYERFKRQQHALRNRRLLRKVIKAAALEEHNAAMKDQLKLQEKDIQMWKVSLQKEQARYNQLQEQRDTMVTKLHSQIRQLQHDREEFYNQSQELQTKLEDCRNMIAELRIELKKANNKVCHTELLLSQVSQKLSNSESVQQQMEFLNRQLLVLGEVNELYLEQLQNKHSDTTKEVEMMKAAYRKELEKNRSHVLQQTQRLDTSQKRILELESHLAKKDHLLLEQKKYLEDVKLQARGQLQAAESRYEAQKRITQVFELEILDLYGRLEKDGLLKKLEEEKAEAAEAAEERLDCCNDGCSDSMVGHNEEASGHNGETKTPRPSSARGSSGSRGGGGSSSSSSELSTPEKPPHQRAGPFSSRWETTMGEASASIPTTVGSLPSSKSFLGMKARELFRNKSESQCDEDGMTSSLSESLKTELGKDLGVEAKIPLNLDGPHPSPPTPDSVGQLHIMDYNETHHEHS
Nature of the assay: co-IP; TSC1:TSC2 DKO HEK 293T cells cotransfected with C-terminal myc-tagged TSC1 and TSC2 or a TSC2 variant; cleared lysates (50 mM Tris-HCl pH 7.6, 100 mM NaCl, 50 mM NaF, 1% Triton X-100) divided between anti-myc affinity beads (TSC1 IP) and anti-TSC2 antiserum with Protein A-agarose (TSC2 IP); 3-4 hr at 4°C; immunoblot.

As for “TSC2 c.2747T>C p.(L916P) variant (from UniProt P49815-1 1-1807)”, the binding result is listed as “binds”. With “TSC2 c.1477C>G p.(L493V) variant (from UniProt P49815-1 1-1807)” the entry was “binds”; with “TSC2 c.250G>A p.(A84T) variant (from UniProt P49815-1 1-1807)”, “binds”; with “TSC2 c.3134C>T (p.S1045F) variant (from UniProt P49815-1 1-1807)”, “binds”. As for “TSC2 c.4966G>A p.(D1656N) variant (from UniProt P49815-1 1-1807)”, the entry is “binds”; as for “TSC2 c.4225C>G p.(R1409G) variant (from UniProt P49815-1 1-1807)”, “binds”; as for “TSC2 r.1444_1477delinsG p.482_493delinsV variant (from UniProt P49815-1 1-1807)”, “no binding”. With “TSC2, wild-type (from UniProt P49815-1 1-1807)” the entry was “binds”; with “TSC2 c.4709_4714del p.(1570_1571del) variant (from UniProt P49815-1 1-1807)”, “binds”; with “TSC2 c.4966G>T p.(D1656Y) variant (from UniProt P49815-1 1-1807)”, “binds”.

On to “TSC2 c.3589A>T (p.I1197F) variant (from UniProt P49815-1 1-1807)”, for which the binding result was “binds”.
